Experimental data reported in the supplement of paper PMC8728848.
Some of the results follow.

How the values were obtained:
Test in all cases: glycan array binding signal (z-score within array); higher = stronger binding
Settings in all cases: glycan notation: IUPAC condensed, linker removed
GlcNAc(b1-3)Gal(b1-4)Glc = target: GlcNAc(b1-3)Gal(b1-4)Glc
Outline: (§1)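 Arrays were curated from the Consortium for Functional Glycomics database, 3228 in total, and kept only where the protein sequence was available. Binding is expressed as a within-array Z-score. This score was averaged across arrays of the same protein sequence at different concentrations or buffers and across linkers, and negative values can be read as non-binding.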

[1] = target: GlcNAc(b1-3)Gal(b1-4)GlcNAc
Outline: as §1

[2] = target: GlcNAc(b1-3)Gal(b1-4)GlcNAc(b1-2)Man(a1-3)[GlcNAc(b1-3)Gal(b1-4)GlcNAc(b1-2)Man(a1-6)]Man(b1-4)GlcNAc(b1-4)GlcNAc
Outline: as §1

[3] = target: GlcNAc(b1-3)Gal(b1-4)GlcNAc(b1-2)Man(a1-3)[GlcNAc(b1-3)Gal(b1-4)GlcNAc(b1-2)Man(a1-6)]Man(b1-4)GlcNAc(b1-4)[Fuc(a1-6)]GlcNAc
Outline: as §1

[4] = target: GlcNAc(b1-3)Gal(b1-4)GlcNAc(b1-2)[GlcNAc(b1-3)Gal(b1-4)GlcNAc(b1-6)]Man(a1-6)[GlcNAc(b1-3)Gal(b1-4)GlcNAc(b1-2)Man(a1-3)]Man(b1-4)GlcNAc(b1-4)GlcNAc
Outline: as §1

[5] = target: GlcNAc(b1-3)Gal(b1-4)GlcNAc(b1-3)Gal(b1-4)GlcNAc
Outline: as §1

[6] = target: GlcNAc(b1-3)Gal(b1-4)GlcNAc(b1-3)Gal(b1-4)GlcNAc(b1-2)Man(a1-3)[GlcNAc(b1-3)Gal(b1-4)GlcNAc(b1-3)Gal(b1-4)GlcNAc(b1-2)Man(a1-6)]Man(b1-4)GlcNAc(b1-4)GlcNAc
Outline: as §1

[7] = target: GlcNAc(b1-3)Gal(b1-4)GlcNAc(b1-3)Gal(b1-4)GlcNAc(b1-2)Man(a1-3)[GlcNAc(b1-3)Gal(b1-4)GlcNAc(b1-3)Gal(b1-4)GlcNAc(b1-2)Man(a1-6)]Man(b1-4)GlcNAc(b1-4)[Fuc(a1-6)]GlcNAc
Outline: as §1

[8] = target: GlcNAc(b1-3)Gal(b1-4)GlcNAc(b1-3)Gal(b1-4)GlcNAc(b1-2)[GlcNAc(b1-3)Gal(b1-4)GlcNAc(b1-3)Gal(b1-4)GlcNAc(b1-6)]Man(a1-6)[GlcNAc(b1-3)Gal(b1-4)GlcNAc(b1-3)Gal(b1-4)GlcNAc(b1-2)Man(a1-3)]Man(b1-4)GlcNAc(b1-4)[Fuc(a1-6)]GlcNAc
Outline: as §1

[9] = target: GlcNAc(b1-3)Gal(b1-4)GlcNAc(b1-3)Gal(b1-4)GlcNAc(b1-3)Gal(b1-4)GlcNAc(b1-2)Man(a1-3)[GlcNAc(b1-3)Gal(b1-4)GlcNAc(b1-3)Gal(b1-4)GlcNAc(b1-3)Gal(b1-4)GlcNAc(b1-2)Man(a1-6)]Man(b1-4)GlcNAc(b1-4)GlcNAc
Outline: as §1

[10] = target: GlcNAc(b1-3)Gal(b1-4)GlcNAc(b1-3)Gal(b1-4)GlcNAc(b1-3)Gal(b1-4)GlcNAc(b1-2)Man(a1-3)[GlcNAc(b1-3)Gal(b1-4)GlcNAc(b1-3)Gal(b1-4)GlcNAc(b1-3)Gal(b1-4)GlcNAc(b1-2)Man(a1-6)]Man(b1-4)GlcNAc(b1-4)[Fuc(a1-6)]GlcNAc
Outline: as §1

[11] = target: GlcNAc(b1-3)Gal(b1-4)GlcNAc(b1-3)Gal(b1-4)GlcNAc(b1-3)Gal(b1-4)GlcNAc(b1-2)[GlcNAc(b1-3)Gal(b1-4)GlcNAc(b1-3)Gal(b1-4)GlcNAc(b1-3)Gal(b1-4)GlcNAc(b1-6)]Man(a1-6)[GlcNAc(b1-3)Gal(b1-4)GlcNAc(b1-3)Gal(b1-4)GlcNAc(b1-3)Gal(b1-4)GlcNAc(b1-2)Man(a1-3)]Man(b1-4)GlcNAc(b1-4)[Fuc(a1-6)]GlcNAc
Outline: as §1

[12] = target: GlcNAc(b1-3)Gal(b1-4)GlcNAc(b1-3)Gal(b1-4)GlcNAc(b1-3)Gal(b1-4)GlcNAc(b1-3)Gal(b1-4)GlcNAc(b1-2)Man(a1-3)[GlcNAc(b1-3)Gal(b1-4)GlcNAc(b1-3)Gal(b1-4)GlcNAc(b1-3)Gal(b1-4)GlcNAc(b1-3)Gal(b1-4)GlcNAc(b1-2)Man(a1-6)]Man(b1-4)GlcNAc(b1-4)GlcNAc
Outline: as §1

[13] = target: GlcNAc(b1-3)Gal(b1-4)GlcNAc(b1-3)Gal(b1-4)GlcNAc(b1-3)Gal(b1-4)GlcNAc(b1-3)Gal(b1-4)GlcNAc(b1-2)Man(a1-3)[GlcNAc(b1-3)Gal(b1-4)GlcNAc(b1-3)Gal(b1-4)GlcNAc(b1-3)Gal(b1-4)GlcNAc(b1-3)Gal(b1-4)GlcNAc(b1-2)Man(a1-6)]Man(b1-4)GlcNAc(b1-4)[Fuc(a1-6)]GlcNAc
Outline: as §1

[14] = target: GlcNAc(b1-3)Gal(b1-4)GlcNAc(b1-3)Gal(b1-4)GlcNAc(b1-3)Gal(b1-4)GlcNAc(b1-3)Gal(b1-4)GlcNAc(b1-2)[GlcNAc(b1-3)Gal(b1-4)GlcNAc(b1-3)Gal(b1-4)GlcNAc(b1-3)Gal(b1-4)GlcNAc(b1-3)Gal(b1-4)GlcNAc(b1-6)]Man(a1-6)[GlcNAc(b1-3)Gal(b1-4)GlcNAc(b1-3)Gal(b1-4)GlcNAc(b1-3)Gal(b1-4)GlcNAc(b1-3)Gal(b1-4)GlcNAc(b1-2)Man(a1-3)]Man(b1-4)GlcNAc(b1-4)[Fuc(a1-6)]GlcNAc
Outline: as §1

[15] = target: GlcNAc(b1-3)Gal(b1-4)GlcNAc(b1-3)Gal(b1-4)GlcNAc(b1-3)GalNAc
Outline: as §1

[16] = target: GlcNAc(b1-3)Gal(b1-4)GlcNAc(b1-3)GalNAc
Outline: as §1

[17] = target: GlcNAc(b1-3)Gal(b1-4)GlcNAc(b1-3)[GlcNAc(b1-3)Gal(b1-4)GlcNAc(b1-3)]GalNAc
Outline: as §1

[18] = target: GlcNAc(b1-3)Gal(b1-4)GlcNAc(b1-6)[Gal(b1-3)]GalNAc
Outline: as §1

[19] = target: GlcNAc(b1-3)Gal(b1-4)GlcNAc(b1-6)[GlcNAc(b1-3)Gal(b1-3)]GalNAc
Outline: as §1

[20] = target: GlcNAc(b1-3)Gal(b1-4)GlcNAc(b1-6)[GlcNAc(b1-3)]Gal(b1-4)GlcNAc
Outline: as §1

GlcNAc(b1-3)GalNAc = target: GlcNAc(b1-3)GalNAc
Outline: as §1

GlcNAc(b1-3)Man = target: GlcNAc(b1-3)Man
Outline: as §1

[21] = target: GlcNAc(b1-3)[GlcNAc(b1-4)][GlcNAc(b1-6)]GlcNAc
Outline: as §1

[22] = target: GlcNAc(b1-3)[GlcNAc(b1-6)]Gal(b1-4)GlcNAc
Outline: as §1

[23] = target: GlcNAc(b1-3)[GlcNAc(b1-6)]GalNAc
Outline: as §1

[24] = target: GlcNAc(b1-4)Gal(b1-4)GlcNAc
Outline: as §1

GlcNAc(b1-4)GlcNAc = target: GlcNAc(b1-4)GlcNAc
Outline: as §1

[25] = target: GlcNAc(b1-4)GlcNAc(b1-4)GlcNAc
Outline: as §1

[26] = target: GlcNAc(b1-4)GlcNAc(b1-4)GlcNAc(b1-4)GlcNAc(b1-4)GlcNAc
Outline: as §1

[27] = target: GlcNAc(b1-4)GlcNAc(b1-4)GlcNAc(b1-4)GlcNAc(b1-4)GlcNAc(b1-4)GlcNAc
Outline: as §1

[28] = target: GlcNAc(b1-4)[GlcNAc(b1-6)]GalNAc
Outline: as §1

[29] = target: GlcNAc(b1-6)Gal(b1-4)GlcNAc
Outline: as §1

GlcNAc(b1-6)GalNAc = target: GlcNAc(b1-6)GalNAc
Outline: as §1

[30] = target: GlcNAc6S(b1-3)Gal(b1-4)GlcNAc
Outline: as §1

Kdn(a2-3)Gal(b1-3)GalNAc = target: Kdn(a2-3)Gal(b1-3)GalNAc
Outline: as §1

Kdn(a2-3)Gal(b1-3)GlcNAc = target: Kdn(a2-3)Gal(b1-3)GlcNAc
Outline: as §1

Kdn(a2-3)Gal(b1-4)Glc = target: Kdn(a2-3)Gal(b1-4)Glc
Outline: as §1

Kdn(a2-3)Gal(b1-4)GlcNAc = target: Kdn(a2-3)Gal(b1-4)GlcNAc
Outline: as §1

[31] = target: Kdn(a2-3)Gal(b1-4)[Fuc(a1-3)]GlcNAc
Outline: as §1

Kdn(a2-6)Gal(b1-4)GlcNAc = target: Kdn(a2-6)Gal(b1-4)GlcNAc
Outline: as §1

[32] = target: Man(a1-2)Man(a1-2)Man(a1-3)Man
Outline: as §1

[33] = target: Man(a1-2)Man(a1-2)Man(a1-6)[Man(a1-3)]Man
Outline: as §1

Man(a1-2)Man(a1-3)Man = target: Man(a1-2)Man(a1-3)Man
Outline: as §1

[34] = target: Man(a1-2)Man(a1-3)[Man(a1-2)Man(a1-6)]Man
Outline: as §1

B1: Pwp5 ND (Candida glabrata) (protein)
chain: MGSSHHHHHHSSGLVPRGSHMASANPVPLTNVCYFPEEYPRQAGFRAITAGLASTILQGSVDELLNYSGLSSLTTQQTTTTTPNFQLPTLPLPTNVYGLTVVPLYLLVQLQGYFVPPVSGQYTFSLENTNDAAIIFFGNPSAFPCGDLSAWPQASADDITVTDGTFPSRTLFLKAGVAYPMRISYYNSLGSGNLAVSFTDPGGTKRTNWNGYIWRYNSCSTCTYT
glycan array binding signal (z-score) (GlcNAc(b1-3)Gal(b1-4)Glc): -0.468 | glycan array binding signal (z-score) [1]: -0.273 | glycan array binding signal (z-score) [2]: -0.568 | glycan array binding signal (z-score) [3]: 0.294 | glycan array binding signal (z-score) [4]: 1.99 | glycan array binding signal (z-score) [5]: -0.44 | glycan array binding signal (z-score) [6]: 0.413 | glycan array binding signal (z-score) [7]: -0.305 | glycan array binding signal (z-score) [8]: 1.62 | glycan array binding signal (z-score) [9]: 0.239 | glycan array binding signal (z-score) [10]: 0.018 | glycan array binding signal (z-score) [11]: 1.57 | glycan array binding signal (z-score) [12]: 0.063 | glycan array binding signal (z-score) [13]: -0.937 | glycan array binding signal (z-score) [14]: 1.86 | glycan array binding signal (z-score) [15]: -0.597 | glycan array binding signal (z-score) [16]: -0.265 | glycan array binding signal (z-score) [17]: -0.226 | glycan array binding signal (z-score) [18]: 0.82 | glycan array binding signal (z-score) [19]: -0.592 | glycan array binding signal (z-score) [20]: -0.57 | glycan array binding signal (z-score) (GlcNAc(b1-3)GalNAc): -1.09 | glycan array binding signal (z-score) (GlcNAc(b1-3)Man): -0.2 | glycan array binding signal (z-score) [21]: -0.483 | glycan array binding signal (z-score) [22]: -0.152 | glycan array binding signal (z-score) [23]: -0.371 | glycan array binding signal (z-score) [24]: -0.154 | glycan array binding signal (z-score) (GlcNAc(b1-4)GlcNAc): -0.664 | glycan array binding signal (z-score) [25]: 0.732 | glycan array binding signal (z-score) [26]: -0.519 | glycan array binding signal (z-score) [27]: 1.11 | glycan array binding signal (z-score) [28]: -0.595 | glycan array binding signal (z-score) [29]: 0.197 | glycan array binding signal (z-score) (GlcNAc(b1-6)GalNAc): -0.162 | glycan array binding signal (z-score) [30]: -0.665 | glycan array binding signal (z-score) (Kdn(a2-3)Gal(b1-3)GalNAc): 0.06 | glycan array binding signal (z-score) (Kdn(a2-3)Gal(b1-3)GlcNAc): -0.251 | glycan array binding signal (z-score) (Kdn(a2-3)Gal(b1-4)Glc): 0.809 | glycan array binding signal (z-score) (Kdn(a2-3)Gal(b1-4)GlcNAc): 0.172 | glycan array binding signal (z-score) [31]: 0.136 | glycan array binding signal (z-score) (Kdn(a2-6)Gal(b1-4)GlcNAc): -0.561 | glycan array binding signal (z-score) [32]: 0.427 | glycan array binding signal (z-score) [33]: -0.687 | glycan array binding signal (z-score) (Man(a1-2)Man(a1-3)Man): -0.624 | glycan array binding signal (z-score) [34]: -0.519
